IC50 is the fitted dose that halves viability relative to control wells, and lower means more sensitive; a fit beyond the top or the lowest dose is shown as a bound at that dose. The AUC spans the tested range (256-fold, ending at the top dose) of the same fit; values near 1 show little effect. An inferred top dose was derived from the fitted curves, not read from the paper.
Legend:
Test in all cases: Viability of human cancer cell lines after 72 h of drug (GDSC screen)
QL-XII-47 = compound: C=CC(=O)N1CCc2ccc(-n3c(=O)ccc4cnc5ccc(-c6cnn(C)c6)cc5c43)cc21 [QL-XII-47]; details: top dose 10.24 µM; top dose inferred
Protocol: (§1)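 Human cancer cell lines in 384-well plates, medium with 10% serum, drug for 72 h over a 256-fold dose range (nine 2-fold or five 4-fold steps up to the top dose). Adherent lines were fixed and stained with the nucleic acid dye Syto60, suspension lines read with resazurin; signal relative to control wells, capped at 0 and 100%. One two-parameter sigmoid per drug and line, fitted in a mixed model over all curves with the slope shared within a line.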

KIN001-266 = compound: CCN1CCC(n2cc(CNc3cc(Cl)c4ncc(C#N)c(Nc5ccc(F)c(Cl)c5)c4c3)nn2)CC1 [KIN001-266]; details: top dose 20 µM; top dose inferred
Protocol: as §1

BAY 61-3606 = compound: COc1ccc(-c2cc3nccn3c(Nc3ncccc3C(N)=O)n2)cc1OC [BAY 61-3606]; details: top dose 8 µM; top dose inferred
Protocol: as §1

CCT007093 = compound: O=C1/C(=C/c2cccs2)CC/C1=C\c1cccs1 [CCT007093]; details: top dose 6.6 µM; top dose inferred
Protocol: as §1

Row | Cell Line | AUC (QL-XII-47) | IC50 (QL-XII-47) [µM] | AUC (KIN001-266) | IC50 (KIN001-266) [µM] | AUC (BAY 61-3606) | IC50 (BAY 61-3606) [µM] | AUC (CCT007093) | IC50 (CCT007093) [µM]
1 | WIL2-NS (lymphoid neoplasm, suspension) | 0.311 | 0.213 | 0.898 | 16.8 | 0.546 | 0.653 | 0.989 | > 6.6
2 | ES7 (Ewing sarcoma, adherent) | 0.463 | 0.506 | 0.769 | 7.75 | 0.635 | 1.19 | 0.979 | > 6.6
3 | WSU-NHL (lymphoid neoplasm, suspension) | 0.851 | 6.43 | 0.884 | 17.1 | 0.679 | 1.47 | 0.985 | > 6.6
4 | PANC-10-05 (pancreas, adherent) | 0.624 | 1.55 | 0.883 | > 20 | 0.747 | 3.19 | 0.976 | > 6.6
5 | L-363 (myeloma, suspension) | 0.534 | 0.781 | 0.872 | 14.7 | 0.785 | – | 0.99 | > 6.6
6 | KS-1 (glioma, adherent) | 0.374 | 0.264 | 0.826 | 16.3 | 0.738 | 2.88 | 0.978 | > 6.6
7 | Hs-578-T (breast, adherent) | 0.934 | > 10.2 | 0.986 | > 20 | 0.96 | > 8 | 0.984 | > 6.6
8 | U-87-MG (glioma, adherent) | 0.714 | 2.89 | 0.868 | > 20 | 0.931 | > 8 | 0.961 | > 6.6
9 | HCC1143 (breast, adherent) | 0.862 | > 10.2 | 0.872 | > 20 | 0.952 | > 8 | 0.979 | > 6.6
10 | KYSE-510 (oesophagus, adherent) | 0.924 | > 10.2 | 0.957 | > 20 | 0.771 | 2.57 | 0.989 | > 6.6
11 | HeLa (cervix, adherent) | 0.86 | 7.93 | 0.982 | > 20 | 0.893 | > 8 | 0.987 | > 6.6
12 | SK-N-DZ (neuroblastoma, adherent) | 0.988 | > 10.2 | 0.871 | 18.5 | 0.918 | > 8 | 0.976 | > 6.6
13 | RKN (ovary, adherent) | 0.645 | 1.65 | 0.965 | > 20 | 0.894 | > 8 | 0.984 | > 6.6
14 | EW-11 (Ewing sarcoma, adherent) | 0.735 | 3.72 | 0.848 | > 20 | 0.835 | 7.59 | 0.981 | > 6.6
15 | HT-1080 (fibrosarcoma, adherent) | 0.854 | 6.81 | 0.883 | 17.5 | 0.791 | 3.19 | 0.989 | > 6.6
16 | CP66-MEL (melanoma, adherent) | 0.936 | > 10.2 | 0.941 | > 20 | 0.985 | > 8 | 0.985 | > 6.6
17 | HMV-II (melanoma, adherent) | 0.853 | > 10.2 | 0.982 | > 20 | 0.399 | 0.248 | 0.98 | > 6.6
18 | HCT-116 (large intestine, adherent) | 0.438 | 0.438 | 0.801 | 9.17 | 0.806 | 3.83 | 0.986 | > 6.6
19 | SNG-M (endometrium, adherent) | 0.47 | 0.53 | 0.828 | 12 | 0.728 | 2.19 | 0.973 | > 6.6
20 | 451Lu (melanoma, adherent) | 0.888 | > 10.2 | 0.877 | 18.5 | 0.898 | > 8 | 0.946 | > 6.6
21 | SW962 (urogenital system, adherent) | 0.782 | 5.43 | 0.876 | > 20 | 0.898 | > 8 | 0.976 | > 6.6

Row | Cell Line | AUC (QL-XII-47) | IC50 (QL-XII-47) [µM] | AUC (KIN001-266) | IC50 (KIN001-266) [µM] | AUC (BAY 61-3606) | IC50 (BAY 61-3606) [µM] | AUC (CCT007093) | IC50 (CCT007093) [µM]
22 | PA-1 (ovary, adherent) | 0.314 | 0.22 | 0.845 | 10 | 0.649 | 1.17 | 0.974 | > 6.6
23 | JHH-2 (liver, adherent) | 0.483 | 0.574 | 0.869 | > 20 | 0.978 | > 8 | 0.976 | > 6.6
24 | VCaP (prostate, adherent) | 0.349 | 0.239 | 0.899 | > 20 | 0.933 | > 8 | 0.987 | > 6.6
25 | COLO-320-HSR (large intestine, suspension) | 0.583 | 1.05 | 0.868 | 14.3 | 0.79 | 3.06 | 0.988 | > 6.6
26 | MEG-01 (chronic myeloid leukaemia, suspension) | 0.525 | 0.745 | 0.866 | 16.1 | 0.818 | 4.18 | 0.988 | > 6.6
27 | ME-1 (acute myeloid leukaemia, suspension) | 0.832 | 7.19 | 0.945 | > 20 | 0.989 | > 8 | 0.975 | > 6.6
28 | GT3TKB (stomach, adherent) | 0.746 | 2.92 | 0.967 | > 20 | 0.958 | > 8 | 0.987 | > 6.6
29 | MDA-MB-157 (breast, adherent) | 0.876 | > 10.2 | 0.959 | > 20 | 0.988 | > 8 | 0.984 | > 6.6
30 | REH (B-cell leukaemia, suspension) | 0.484 | 0.582 | 0.85 | 14.3 | 0.754 | 2.6 | 0.984 | > 6.6
31 | SNU-182 (liver, adherent) | 0.796 | 5.05 | 0.907 | > 20 | 0.898 | > 8 | 0.983 | > 6.6
32 | JSC-1 (B-cell lymphoma, suspension) | 0.418 | 0.382 | 0.84 | 13.5 | 0.744 | 2.48 | 0.968 | > 6.6
33 | CHP-212 (neuroblastoma, adherent) | 0.576 | 1.02 | 0.985 | > 20 | 0.871 | 6.58 | 0.98 | > 6.6
34 | MY-M12 (leukaemia, suspension) | 0.509 | 0.679 | 0.854 | 19.1 | 0.801 | 4.51 | 0.964 | > 6.6
35 | TE-5 (oesophagus, adherent) | 0.808 | 6.32 | 0.973 | > 20 | 0.792 | 4.26 | 0.945 | > 6.6
36 | NB6 (neuroblastoma, adherent) | 0.639 | 1.7 | 0.817 | 14.6 | 0.86 | > 8 | 0.974 | > 6.6
37 | MES-SA (uterus, adherent) | 0.927 | > 10.2 | 0.987 | > 20 | 0.624 | 1.04 | 0.987 | > 6.6
38 | EFO-27 (ovary, adherent) | 0.767 | 4.78 | 0.863 | > 20 | 0.708 | 2.27 | 0.956 | > 6.6
39 | 769-P (kidney, adherent) | 0.294 | 0.159 | 0.87 | > 20 | 0.586 | 0.882 | 0.977 | > 6.6
40 | RPMI-8402 (T-cell lymphoblastic leukaemia, suspension) | 0.42 | 0.402 | 0.772 | 6.54 | 0.719 | 1.85 | 0.991 | > 6.6
41 | HCC2218 (breast, suspension) | 0.817 | 7.7 | 0.863 | > 20 | 0.882 | > 8 | 0.978 | > 6.6
42 | KYSE-140 (oesophagus, adherent) | 0.581 | 1.1 | 0.813 | 12.6 | 0.786 | 3.95 | 0.984 | > 6.6

Row | Cell Line | AUC (QL-XII-47) | IC50 (QL-XII-47) [µM] | AUC (KIN001-266) | IC50 (KIN001-266) [µM] | AUC (BAY 61-3606) | IC50 (BAY 61-3606) [µM] | AUC (CCT007093) | IC50 (CCT007093) [µM]
43 | NCI-H211 (small cell lung carcinoma, adherent) | 0.735 | 2.92 | 0.797 | 9.12 | 0.89 | > 8 | 0.987 | > 6.6
44 | NCI-H2122 (lung adenocarcinoma, adherent) | 0.966 | > 10.2 | 0.923 | > 20 | 0.667 | 1.41 | 0.989 | > 6.6
45 | RS4-11 (leukaemia, suspension) | 0.597 | 1.15 | 0.88 | 17.7 | 0.661 | 1.34 | 0.981 | > 6.6
46 | P30-OHK (lymphoblastic leukaemia, suspension) | 0.563 | 0.922 | 0.889 | 16.1 | 0.485 | 0.459 | 0.987 | > 6.6
47 | C-4-I (cervix, adherent) | 0.981 | > 10.2 | 0.96 | > 20 | 0.899 | > 8 | 0.986 | > 6.6
48 | A704 (kidney, adherent) | 0.857 | 7.91 | 0.863 | 16.4 | 0.977 | > 8 | 0.978 | > 6.6
49 | Ca9-22 (head and neck, adherent) | 0.767 | 3.53 | 0.863 | 15.2 | 0.875 | 6.87 | 0.986 | > 6.6
50 | NCI-H1648 (lung adenocarcinoma, adherent) | 0.773 | 4.25 | 0.865 | 19.4 | 0.828 | 5.33 | 0.935 | > 6.6
51 | VAL (B-cell lymphoma, suspension) | 0.662 | 1.81 | 0.726 | 5.52 | 0.707 | 1.93 | 0.985 | > 6.6
52 | MFM-223 (breast, adherent) | 0.741 | 3.1 | 0.896 | > 20 | 0.989 | > 8 | 0.985 | > 6.6
53 | IGR-37 (melanoma, adherent) | 0.843 | 6.36 | 0.835 | 11.5 | 0.876 | 6.77 | 0.987 | > 6.6
54 | JJN-3 (haematopoietic neoplasm, suspension) | 0.464 | 0.52 | 0.86 | 12.2 | 0.807 | 3.25 | 0.99 | > 6.6
55 | TE-12 (oesophagus, suspension) | 0.728 | 3.34 | 0.903 | > 20 | 0.505 | 0.519 | 0.978 | > 6.6
56 | JVM-2 (lymphoid neoplasm, suspension) | 0.847 | > 10.2 | 0.859 | > 20 | 0.932 | > 8 | 0.98 | > 6.6
57 | A253 (head and neck, adherent) | 0.627 | 1.42 | 0.953 | > 20 | 0.972 | > 8 | 0.983 | > 6.6
58 | HAL-01 (lymphoblastic leukaemia, suspension) | 0.511 | 0.685 | 0.846 | 12.2 | 0.836 | 4.45 | 0.98 | > 6.6
59 | SW1463 (large intestine, adherent) | 0.652 | 2.29 | 0.977 | > 20 | 0.962 | > 8 | 0.957 | > 6.6
60 | CESS (acute myeloid leukaemia, suspension) | 0.487 | 0.593 | 0.804 | 8.34 | 0.69 | 1.56 | 0.991 | > 6.6
61 | JVM-3 (lymphoid neoplasm, suspension) | 0.874 | 10.2 | 0.852 | 15.9 | 0.962 | > 8 | 0.982 | > 6.6
